# Experimental data: the supplement of paper PMC4604168 (melanoma cell lines)
# The list shows a part of the results. Repeats are few or missing, and single values can be far off.
# Assays:
# Assay in all cases: cell count relative to DMSO control; melanoma cells; higher = more viable cells
# Conditions in all cases: library dose: low library concentration; 72 h
# [1] = system: MZ2-MEL
# [2] = system: MeWo
# [3] = system: RPMI7951
# [4] = system: RVH-421
# [5] = system: SkMel28
# [6] = system: SkMel2
# [7] = system: SkMel30
# [8] = system: UACC62
# [9] = system: WM115
# [10] = system: WM1716
# [11] = system: WM1745
# [12] = system: WM3526
# [13] = system: WM3619
# [14] = system: WM451Lu
# 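Note: cell number obtained by counting DAPI-stained nuclei in high-throughput microscope images with image analysis software, screen run in 1,536-well plates.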
SMILES,cell count [1],cell count [2],cell count [3],cell count [4],cell count [5],cell count [6],cell count [7],cell count [8],cell count [9],cell count [10],cell count [11],cell count [12],cell count [13],cell count [14]
"CCCS(=O)(=O)Nc1ccc(F)c(C(=O)c2c[nH]c3ncc(Cl)cc23)c1F + Nc1ncn([C@H]2C[C@H](O)[C@@H](CO)O2)c(=O)n1 [decitabine] (first compound 0.08 µM, partner dose 0.1 µM)",74.4%,101%,99.1%,87.5%,82.1%,96.4%,103%,55.8%,98.6%,85%,94.4%,63.4%,72.6%,89.7%
"C=C(c1ccc(C(=O)O)cc1)c1cc2c(cc1C)C(C)(C)CCC2(C)C [Bexarotene] + CC(=O)c1c(C)c2cnc(Nc3ccc(N4CCNCC4)cn3)nc2n(C2CCCC2)c1=O [palbociclib] (first compound 2 µM, partner dose 0.04 µM)",83.4%,79.5%,59.8%,76.4%,90.3%,73.5%,89.6%,78%,85.6%,75.3%,76.9%,57.6%,82.4%,59.2%
"C=C(c1ccc(C(=O)O)cc1)c1cc2c(cc1C)C(C)(C)CCC2(C)C [Bexarotene] + COc1ccc(Cl)c(Nc2nc3ccccc3nc2NS(=O)(=O)c2cccc(NC(=O)C(C)(C)N)c2)c1 [XL147] (first compound 2 µM, partner dose 0.8 µM)",98.1%,93.1%,90.8%,122%,104%,86.9%,105%,110%,103%,95.1%,83.7%,109%,84.7%,96.9%
"CS(=O)(=O)c1ccc(C(=O)Nc2ccc(Cl)c(-c3ccccn3)c2)c(Cl)c1 [vismodegib] + Clc1ccc(Nc2nnc(Cc3ccncc3)c3ccccc23)cc1 [vatalanib] (first compound 1 µM, partner dose 2 µM)",95.3%,81.6%,85%,115%,105%,90.6%,94.2%,95.7%,97.6%,83.5%,77.3%,112%,93.9%,95.8%
"NC1(c2ccc(-c3nc4ccn5c(=O)[nH]nc5c4cc3-c3ccccc3)cc2)CCC1 + COc1ccc(Cl)c(Nc2nc3ccccc3nc2NS(=O)(=O)c2cccc(NC(=O)C(C)(C)N)c2)c1 [XL147] (first compound 0.4 µM, partner dose 0.8 µM)",88.6%,79.8%,97%,74.3%,70.8%,91.5%,86.9%,82.1%,74%,90.1%,90.5%,78%,92.6%,91.3%
